Measurements published in the supplement of paper PMC10338343.
± gives the standard deviation. Whole data set: some 3,700 sequences, median “pre-steady-state target cleavage rate” near 0.02, cut for the highest 2% near 0.23. Only a part is listed here, and it is no random draw.

The sequences below were run on MILI (PIWIL2) piRISC loaded with Kctd7 piRNA (26 nt) (assay: pre-steady-state target cleavage rate (min^-1); MIWI and MILI are mouse PIWI proteins and EfPiwi is from a freshwater sponge; tags in brackets are library labels; higher = faster piRNA-guided slicing of the target). Conditions: guide: Kctd7 piRNA 5'p-UGUUAAUCUCUCAGAGAAGGUGACAG; auxiliary factor: 500 nM mouse GTSF1.
In short: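 With or without 500 nM GTSF1 partner protein, 1 nM active affinity-purified piRISC carrying one synthetic guide was mixed with 0.1 nM transcribed, DNA-blocked target RNA library in HEPES–potassium acetate buffer at 33 °C for 0–8 or 0–960 min. Uncleaved targets were sequenced and normalised to depth and to weakly complementary targets, three trials were pooled, and k3 was capped at 0.0001 min^-1. The pre-steady-state cleavage rate came from a burst-and-steady-state fit.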

Sequence | pre-steady-state target cleavage rate
UAGUUUGUCACCUUCUCUGAGAGAUUAACA | 0.211 ± 0.018
UAGUGAGUCUGGUUCUCUGAGAGAUUAACA | 0.0256 ± 0.0044
UAGUGACAGACCUUCUCUCAGAGAUUUACA | 0.0156 ± 0.0069
UAGUGACAGUGGAAGUCUGAGAGAUUAGCA | < 0.0001
UAGUGAGUCACCUUGUCUGUGAGAUUAACA | 0.0407 ± 0.0053
UAGUGACAGUGCAUCUCUGUGAGAUUAACA | 0.00379 ± 0.0027
UAGUCUGUCACCAUCUCUGAGAGAUUAAGA | 0.0701 ± 0.013
UAGUGACAGACGUUCUCUGAGAGUUUAACA | 0.015 ± 0.0052
UAGUGACAGUCGCUUCUCUGAGAGAUUAACA | 0.132 ± 0.0089
UAGUGACAGACCUUCUGAGAGAGAUUAUGA | 0.00433 ± 0.0039
UAGUGACACACCUUCUCUGAGAGGAUUAACA | 0.116 ± 0.015
UAGUGACAGUGCUUCUCUGAGAGAUCUAACA | 0.00572 ± 0.0023
UAGUCUGUCACCUUCUCUGAUGAGAUUAACA | 0.0218 ± 0.0062
UAGUGACACACCUUCUCUCAGAGAUUUACA | 0.0404 ± 0.0093
UAGUGAGUCACCUACUCUGUGAGAUUAACA | 0.0395 ± 0.0049
UAGUGACAGUCUUCUCUGAGAGAUUAACA | 0.0515 ± 0.0067
UAGUGAGUCACCUACUCUGACAGAUUAACA | 0.0577 ± 0.0088
UAGUGUGUCACGUUCUCUGAGAGUUUAACA | 0.0921 ± 0.014
UAGUGACAGUCCUUCUCUGAGAGAUUUAACA | 0.131 ± 0.016
UAGUGUGUCUCCUUCUCUGACAGAUUAACA | 0.0515 ± 0.0065
UAGUGACACACGAUCUCUGAGAGAUUAAGA | 0.0104 ± 0.0022
UAGUCUGUCACCUUCUCGAGAGAUUAACA | 0.0771 ± 0.02
UAGUGACAGUCCUUCUCUUAGAGAUUAACA | 0.0319 ± 0.0075
UAGUGUGUCACGUUCUCUGAGAGAUUAACA | 0.146 ± 0.013

Sequence | pre-steady-state target cleavage rate
UAGUGACACAGCUUCACUGAGAGAUUAACA | 0.0599 ± 0.0099
UAGUGACACACCUUCUGUGAGAGAUUAAGA | 0.029 ± 0.012
UAGUGACAGUGGAUCUCUGAGAGAUUAAACA | < 0.0001
UAGUGACAGACCUUCUCUGAGAUGAUUAACA | 0.0496 ± 0.0089
UAGUGACAGUGCUUCUCUGAGAGAUUACCA | 0.00433 ± 0.0025
UAGUCUGUCACACUUCUCUGAGAGAUUAACA | 0.115 ± 0.0068
UAGUGACAGACCUUCGUCUGAGAGAUUAACA | 0.0103 ± 0.0038
UAGUGUGUCACCUUCUCUCAGAGAUUUACA | 0.0482 ± 0.013
UAGUGUGUACACCUUCUCUGAGAGAUUAACA | 0.184 ± 0.015
UAGUGUGUCUGCUUCUCUGAGAGAUUAUGA | 0.0048 ± 0.0034
UAGUGACAGACCUACUCUGAGAGUUUAACA | 0.0104 ± 0.0054
UAGUGACUCACCUACUCUGAGAGAAUAACA | 0.0139 ± 0.0047
UAGUGACUCACCUUCUCUGAGAGAUUAGCA | 0.146 ± 0.027
UAGUGAGUCACCUUCUCUGAGACUUUAACA | 0.0515 ± 0.017
UAGUGUGUCACCUUCUCAGACAGAUUAACA | 0.0415 ± 0.0083
UAGUCUGUCACCUUCUCUCACAGAUUAACA | 0.0179 ± 0.0052
UAGUGUGUCACCUUCUCAGUGAGAUUAACA | 0.0273 ± 0.004
UAGUGAGUCACCUUCUCUGAGAGAUCUAACA | 0.171 ± 0.035
UAGUGACAGUGCUUCUCUGUGAGAUUAACA | 0.0129 ± 0.0023
UAGUGACAGUCCUUCUCUGACAGUUUAACA | < 0.0001
UAGUGAGUCACGUUCACUGAGAGAUUAACA | 0.135 ± 0.0066
UAGUGUGUCACCUUCACUGAGACAUUAACA | 0.0842 ± 0.018
UAGUGAGACACCUUGUCUGAGAGAUUAACA | 0.0854 ± 0.012
UAGUGAGUCAGCUUCACUGAGAGAUUAACA | 0.118 ± 0.0076

Sequence | pre-steady-state target cleavage rate
UAGUGUGUCACCUACUCUGAGAGAUUAUCA | 0.239 ± 0.049
UAGUGAGUCACUCUUCUCUGAGAGAUUAACA | 0.0962 ± 0.0097
UAGUGAGUCACCUUCACUCAGAGAUUAACA | 0.0352 ± 0.0087
UAGUGACAGUCCUUCUCUGAGAGAUUACACA | 0.0217 ± 0.0053
UAGUGACAGACCUUCUGUGAGAGAUUAAGA | 0.0157 ± 0.0075
UAGUGACAGUGGUUCUCUGAGAGAUUAACU [g2:g18:cont:t1U] | 0.00537 ± 0.0016
UAGUGACAGUGCUUGCUCUGAGAGAUUAACA | 0.0214 ± 0.0029
UAGUGACACACCAUCUCUGAGAGAUAAACA | 0.0369 ± 0.011
UAGUGACAGACGUUCUGUGAGAGAUUAACA | 0.0275 ± 0.0072
UAGUGAGUCACCUUCUGAGAGAGAUUAAGA | 0.016 ± 0.0076
UAGUCUGUCACCAUCUCUCAGAGAUUAACA | 0.0403 ± 0.0059
UAGUGACAGUGCUUCUCUGAGUGAAUAACA | < 0.0001
UAGUCUGACACCUUCUCUGAGAGAUUUACA | 0.116 ± 0.017
UAGUGACAGACCUUCUCUGAGAGAAUUAACA | 0.0476 ± 0.017
UAGUGUGUCACCUUCUCUGAGAGGUUAACA | 0.0851 ± 0.015
UAGUCUGUCACCUUCUGUGAGAGAUUUACA | 0.0271 ± 0.0073
UAGUGACUCACCAUGUCUGAGAGAUUAACA | 0.0653 ± 0.0084
UAGUGACAGACGUUGUCUGAGAGAUUAACA | 0.0382 ± 0.0048
UAGUGACACACGUUCUCUGACAGAUUAACA | 0.00631 ± 0.0034
UAGUCUGUGUGCUUCUCUGAGAGAUUAACA | 0.0176 ± 0.0032
UAGUGAGUCACGUUCUCUGAGACAUUAACA | 0.0246 ± 0.006
UAGUGACACACCUUCUCUGAGAGAUUAAAA | 0.125 ± 0.026
UAGUGUGUCACCUUGUCAGAGAGAUUAACA | 0.0472 ± 0.0087
UAGUCUGUCACCUACUCUGAGAGAUAAACA | 0.0816 ± 0.017
